From a collection of fitness landscapes (doi:10.1126/science.1257360)
The list shows a part of the results.

B1: PhoQ; a variant is named by its letters at X, in order, P23837 (parent)
chain: MKKLLRLFFPLSLRVRFLLATAAVVLVLSLAYGMVALIGYSVSFDKTTFRLLRGESNLFYTLAKWENNKLHVELPENIDKQSPTMTLIYDENGQLLWAQRDVPWLMKMIQPDWLKSNGFHEIEADVNDTSLLLSGDHSIQQQLQEVREDDDDAEMTHSVAVNVYPATSRMPKLTIVVVDTIPVELKSSYMVWSWFIYVLSANLLLVIPLLWVAAWWSLRPIEALAKEVRELEEHNRELLNPATTRELTSLVRNLNRLLKSERERYDKYRTTLTDLTHSLKTPLXXLQXXLRSLRSEKMSVSDAEPVMLEQISRISQQIGYYLHRASMRGGTLLSRELHPVAPLLDNLTSALNKVYQRKGVNISLDISPEISFVGEQNDFVEVMGNVLDNACKYCLEFVEISARQTDEHLYIVVEDDGPGIPLSKREVIFDRGQRVDTLRPGQGVGLAVAREITEQYEGKIVAGESMLGGARMEVIFGRQHSAPKDE

Variants of: B1
Test: enrichment ratio after two sorts for PhoP signalling (ratio (wild type AVST 3.29)); higher = more functional
Conditions: with PhoP (E. coli)

Variant	enrichment ratio
DCTL	≤ 0.25
NNSL	≤ 0.25
HKYT	≤ 0.25
HWNP	≤ 0.25
WRKP	≤ 0.25
RQDN	≤ 0.25
HACS	≤ 0.25
TAKK	≤ 0.25
MLDL	≤ 0.25
NTEL	≤ 0.25
HRYD	≤ 0.25
SLAA	1.03
HMRI	≤ 0.25
HMTI	0.351
ITSV	≤ 0.25
KHIF	≤ 0.25
YSRW	≤ 0.25
QMTD	≤ 0.25
FKGH	≤ 0.25
KTQR	≤ 0.25
MHVI	≤ 0.25
TRRP	≤ 0.25
TTQH	7.73
LNIY	≤ 0.25

Variant	enrichment ratio
YSWM	≤ 0.25
ALYM	≤ 0.25
MLRD	≤ 0.25
IFIL	≤ 0.25
PSVI	≤ 0.25
KVMP	≤ 0.25
QNCF	≤ 0.25
GWLK	≤ 0.25
AKAE	≤ 0.25
LSAA	≤ 0.25
WEAA	≤ 0.25
ALML	3.93
DVNP	≤ 0.25
VWGK	≤ 0.25
RNKH	≤ 0.25
GNKH	≤ 0.25
CTFY	≤ 0.25
AFGK	≤ 0.25
PECP	≤ 0.25
IMTP	≤ 0.25
IASA	≤ 0.25
YCVC	≤ 0.25
HTYH	≤ 0.25
FKSS	≤ 0.25

Variant	enrichment ratio
TNWM	≤ 0.25
MRPR	≤ 0.25
KMHA	≤ 0.25
PMYE	≤ 0.25
RMVV	≤ 0.25
HCHY	≤ 0.25
MHKF	≤ 0.25
IRGK	≤ 0.25
PAQG	≤ 0.25
PNIM	≤ 0.25
YSQL	≤ 0.25
TPMV	≤ 0.25
NEIM	≤ 0.25
WQDM	≤ 0.25
TMPC	≤ 0.25
ANIV	13.7
QNAS	≤ 0.25
SYNG	≤ 0.25
NYRT	≤ 0.25
HNPP	≤ 0.25
WLVL	≤ 0.25
FEWW	≤ 0.25
VSFM	0.396
ANCK	6.46

Variant	enrichment ratio
FRVS	≤ 0.25
NGIV	≤ 0.25
LMNW	≤ 0.25
NHIK	≤ 0.25
TPWL	≤ 0.25
LWTS	≤ 0.25
RRRT	≤ 0.25
LEPV	≤ 0.25
KCLI	≤ 0.25
DRLF	≤ 0.25
PFNA	≤ 0.25
NSYT	≤ 0.25
VFIE	≤ 0.25
HLIM	≤ 0.25
WTHH	≤ 0.25
GFFD	≤ 0.25
HIGW	≤ 0.25
RNAS	≤ 0.25
QMHI	≤ 0.25
QLLV	≤ 0.25
LGNG	≤ 0.25
MWLL	≤ 0.25
ERTA	≤ 0.25
FCLI	7.58

Variant	enrichment ratio
RTQG	≤ 0.25
QRDH	≤ 0.25
GLAW	≤ 0.25
NSPW	≤ 0.25
AWMK	≤ 0.25
FGAS	≤ 0.25
KFFF	≤ 0.25
DCCM	≤ 0.25
GRGY	≤ 0.25
ITWL	≤ 0.25
YTYR	≤ 0.25
AFHP	≤ 0.25
KHLA	≤ 0.25
KSYM	≤ 0.25
SMMT	5.23
LAIR	≤ 0.25
NSSC	≤ 0.25
HHET	≤ 0.25
KSYK	≤ 0.25
RWCC	≤ 0.25
KKRT	≤ 0.25
PIPV	≤ 0.25
RKSM	≤ 0.25
MCAM	12.2

Variant	enrichment ratio
KNGD	≤ 0.25
FMST	≤ 0.25
NPRR	≤ 0.25
HGIK	≤ 0.25
WRMS	≤ 0.25
DRWV	≤ 0.25
RPGF	≤ 0.25
SGYT	≤ 0.25
SPCC	≤ 0.25
TKCA	1.64
VIHN	≤ 0.25
DLVA	≤ 0.25
MQDT	≤ 0.25
SHID	≤ 0.25
GEIL	3.53
HSYD	≤ 0.25
LQHD	≤ 0.25
MMGA	≤ 0.25
IEQS	≤ 0.25
WPYS	≤ 0.25
HRRQ	≤ 0.25
GKNK	≤ 0.25
MIMW	≤ 0.25
GSCC	8.33

Variant	enrichment ratio
SRPV	≤ 0.25
PKSF	≤ 0.25
IYAK	≤ 0.25
GSSG	0.346
KDKG	≤ 0.25
FLML	0.929
ITSI	≤ 0.25
ICFF	≤ 0.25
KSTE	≤ 0.25
WMFS	≤ 0.25
PDMF	≤ 0.25
NQTS	≤ 0.25
MAHL	7.58
LTVF	≤ 0.25
MNTQ	≤ 0.25
KAGN	≤ 0.25
KRVG	≤ 0.25
DLLN	≤ 0.25
NEST	3.45
PAPL	≤ 0.25
ISFT	≤ 0.25
VIIV	≤ 0.25
LVRS	≤ 0.25
KHHI	≤ 0.25

Variant	enrichment ratio
TKNE	≤ 0.25
QRFI	≤ 0.25
VNGS	≤ 0.25
RPYG	≤ 0.25
KDPE	≤ 0.25
TMHR	≤ 0.25
LCPP	≤ 0.25
WAYG	≤ 0.25
ESDL	≤ 0.25
PSFY	≤ 0.25
AVSS	7.83
KIEQ	≤ 0.25
DIDF	≤ 0.25
FRGV	≤ 0.25
HNFA	≤ 0.25
VEFR	≤ 0.25
AQVS	14
FFQA	≤ 0.25
NVSV	≤ 0.25
TELG	27.4
QELC	≤ 0.25
TWEH	≤ 0.25
YPPI	≤ 0.25
KSEV	≤ 0.25

Variant	enrichment ratio
TKVK	≤ 0.25
PCYI	≤ 0.25
ETIP	≤ 0.25
HIDS	≤ 0.25
MLDH	≤ 0.25
VIVL	≤ 0.25
NGHL	≤ 0.25
GHSY	≤ 0.25
FHTG	≤ 0.25
ETPS	≤ 0.25
WELS	≤ 0.25
YDMW	≤ 0.25
LQVI	≤ 0.25
HPHN	≤ 0.25
TCCN	17.6
DHSA	≤ 0.25
YNCT	≤ 0.25
QHAI	≤ 0.25
PWNF	≤ 0.25
RIKN	≤ 0.25
FCEL	≤ 0.25
KTHT	≤ 0.25
DYLC	≤ 0.25
DFCK	≤ 0.25

Variant	enrichment ratio
DDCY	≤ 0.25
KSPW	≤ 0.25
YFRP	≤ 0.25
LGRS	≤ 0.25
YFFS	≤ 0.25
YRFV	≤ 0.25
TWCY	≤ 0.25
QLLI	≤ 0.25
SVRI	≤ 0.25
KQMY	≤ 0.25
QYRG	≤ 0.25
GIDI	≤ 0.25
RFVA	≤ 0.25
LRVH	≤ 0.25
SYLD	≤ 0.25
KASD	≤ 0.25
HPSP	≤ 0.25
LWWP	≤ 0.25
YPLQ	≤ 0.25
YPSD	≤ 0.25
WRFY	≤ 0.25
ACSI	9.58
HWVE	≤ 0.25
HNPI	≤ 0.25

Variant	enrichment ratio
PVIT	≤ 0.25
RSNN	≤ 0.25
LSGF	≤ 0.25
WIMP	≤ 0.25
AHEG	≤ 0.25
TIMF	≤ 0.25
EKGI	≤ 0.25
EMSR	≤ 0.25
SSQA	0.476
NDVP	≤ 0.25
AMKW	≤ 0.25
EMFY	≤ 0.25
MTTA	≤ 0.25
ITWM	≤ 0.25
WGWN	≤ 0.25
AINF	1.66
RRWM	≤ 0.25
KSFV	≤ 0.25
FNDN	≤ 0.25
QFSW	≤ 0.25
RPIR	≤ 0.25
DKGI	≤ 0.25
QHKI	≤ 0.25
MPDE	1.25

Variant	enrichment ratio
EKMM	≤ 0.25
SHAR	≤ 0.25
GFNG	≤ 0.25
NHRN	≤ 0.25
HNFG	≤ 0.25
DINC	≤ 0.25
QSIY	≤ 0.25
RNSD	≤ 0.25
ATDH	≤ 0.25
MSRY	≤ 0.25
MTCQ	≤ 0.25
RRFT	≤ 0.25
FLKW	≤ 0.25
YFRS	≤ 0.25
VKPL	≤ 0.25
KFMH	≤ 0.25
SQHV	≤ 0.25
GWAC	≤ 0.25
LKNF	≤ 0.25
ATFP	≤ 0.25
LQNA	≤ 0.25
NFHC	≤ 0.25
NGYF	≤ 0.25
VHVF	≤ 0.25

Variant	enrichment ratio
ITWP	≤ 0.25
CCMQ	6.53
PGNP	≤ 0.25
WNRR	≤ 0.25
LVHT	≤ 0.25
MPPK	≤ 0.25
QPLH	≤ 0.25
QDMN	≤ 0.25
KITM	≤ 0.25
NNLL	4.63
GIQR	≤ 0.25
ERFQ	≤ 0.25
GDQL	≤ 0.25
DMFT	≤ 0.25
PKCG	≤ 0.25
TSWH	9.44
TWLA	≤ 0.25
WWPV	≤ 0.25
